Assay results from PubChem BioAssay (NCATS).
This list was built around the results that the source calls inconclusive (neither active nor inactive); the mix of calls is not that of the screen. For some of these results: Potencies of inconclusive entries are doubtful fits and often do not repeat. For some of these results: A note “side channel” means that the fit belongs to a control or component signal, not to the main read-out. Active and inactive are the calls of the source. Unless noted, calls follow the shape of the full dose curve.

What was measured:
[1] = target: Bile acid receptor (Homo sapiens) (UniProt Q96RI1); test: qHTS assay for small molecule antagonists of farnesoid X receptor signaling (AID 588526); conditions: HEK293T FXR-UAS-bla, beta-lactamase ratio, antagonist mode; activity change, negative = inhibition: at 76.7 µM (top of the series); also: potency is read from the fitted curve at half-maximal effect; as to activity change, negative = inhibition: % is scaled to controls: 0 for no effect and ±100 for the full control effect
How it was run: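 Concentration-response titrations were fitted to the Hill equation for half-maximal inhibition and maximal response, with data normalised to 50 uM chenodeoxycholic acid and DMSO control wells. Cells: FXR-UAS-bla HEK293T, dialyzed FBS.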

[2] = target: Peroxisome proliferator-activated receptor gamma (Homo sapiens) (UniProt P37231); test: qHTS assay for small molecule antagonists of peroxisome proliferator-activated receptor gamma signaling (AID 588537; active = well fitted inhibition curve with a large enough effect in the signal ratio, with a control signal flat, not every such curve was filed as active; inconclusive = small, poorly fitted or top-dose-only effect, or effect the other way, or a change in a side signal; the % refers to the signal ratio;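 also: reporter cells co-stimulated with 50 nM rosiglitazone agonist during compound treatment; % of control where 0% means no effect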); conditions: HEK293 PPARg-UAS-bla, beta-lactamase ratio, antagonist mode; activity, negative = inhibition: at 76.8 µM (top of the series) unless noted
How it was run: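 Compounds are tested as concentration series for inhibition of rosiglitazone-driven (50 nM) reporter expression in GeneBLAzer PPAR-gamma-UAS-bla HEK293 cells. After 16 h at 37 C, CCF4 substrate is added for 2 h at room temperature and blue/green fluorescence is measured.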

[3] = qHTS assay for small molecule agonists of the antioxidant response element (ARE) signaling pathway (AID 651741; active = well fitted activation curve with a large enough effect in the signal ratio; inconclusive = small, poorly fitted or top-dose-only effect, or effect the other way, or a change in a side signal; the % refers to the signal ratio; also: potency is read from the fitted curve at half-maximal effect; as to activation: % of control where 0% means no effect); conditions: HepG2 ARE-bla reporter, beta-lactamase FRET ratio, 16 h; activation: at 96 µM (top of the series) unless noted
How it was run: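 Reporter: beta-lactamase under ARE, stably in HepG2. Exposure: 16 h, 37 C, compounds delivered in DMSO by pin tool after 5 h cell preincubation. Readout: FRET substrate fluorescence after 2 h at RT.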

[4] = target: Peroxisome proliferator-activated receptor delta (Homo sapiens) (UniProt Q03181); test: qHTS assay for small molecule agonists of peroxisome proliferator-activated receptor delta signaling (AID 588534); conditions: HEK293T PPARdelta-UAS-bla, beta-lactamase ratio, 18 h; activation: at 76.7 µM (top of the series) unless noted;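 also: 0% = DMSO basal wells and 100% = positive control agonist at 10 µM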
Sequence of UniProt Q03181 (Q03181 whole entry, looked up): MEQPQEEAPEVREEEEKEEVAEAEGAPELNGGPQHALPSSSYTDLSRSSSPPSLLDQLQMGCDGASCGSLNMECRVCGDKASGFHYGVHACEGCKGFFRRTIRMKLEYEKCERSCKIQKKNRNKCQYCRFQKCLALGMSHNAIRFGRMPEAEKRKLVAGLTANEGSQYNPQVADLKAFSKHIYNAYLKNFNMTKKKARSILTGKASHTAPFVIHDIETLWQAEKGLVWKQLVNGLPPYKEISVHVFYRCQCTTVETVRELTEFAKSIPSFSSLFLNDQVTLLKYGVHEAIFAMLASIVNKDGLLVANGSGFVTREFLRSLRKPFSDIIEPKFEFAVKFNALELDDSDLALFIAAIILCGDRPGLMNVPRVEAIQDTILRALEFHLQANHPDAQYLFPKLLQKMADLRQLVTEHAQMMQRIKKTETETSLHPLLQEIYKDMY
How it was run: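 Agonist-mode beta-lactamase reporter readout (CCF4 dye, 2 h at RT) after 18 h at 37 °C exposure to a titration; Hill-equation fitting gave EC50 and maximal response.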

[5] = target: Peroxisome proliferator-activated receptor gamma (Homo sapiens) (UniProt P37231); test: qHTS assay for small molecule agonists of peroxisome proliferator-activated receptor gamma signaling (AID 588536; active = well fitted curve in the direction sought with a large enough effect in the signal ratio, with a control signal flat, not every such curve was filed as active; inconclusive = small, poorly fitted or top-dose-only effect, or effect the other way, or a change in a side signal; inactive = no such curve, though single readings can be large or run the other way; the % refers to the signal ratio; also: potency is read from the fitted curve at half-maximal effect;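 as to activation: 0% = DMSO basal wells and 100% = rosiglitazone at 2 µM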); conditions: HEK293 PPARg-UAS-bla, beta-lactamase ratio, 16 h; activation: at 76.7 µM (top of the series), percent of rosiglitazone response, DMSO as zero
How it was run: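 Cells were plated and held 6–6.5 h at 37 C, then compounds were added as a titration series. After a further 16 h, CCF4 dye was loaded for 2 h at room temperature and emission at 460/530 nm recorded.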

[6] = target: Thyroid hormone receptor beta (Homo sapiens) (UniProt P10828); test: qHTS assay for small molecule antagonists of thyroid hormone receptor beta signaling (AID 588547; active = well fitted inhibition curve with a large enough effect in the signal ratio, with a control signal flat, not every such curve was filed as active; inconclusive = small, poorly fitted or top-dose-only effect, or effect the other way, or a change in a side signal; the % refers to the signal ratio;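 also: cells stimulated with 0.4 nM T3 agonist during compound exposure; % is scaled to controls: 0 for no effect and ±100 for the full control effect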); conditions: TR-UAS-bla HEK293, beta-lactamase ratio, antagonist mode, 18 h
Sequence of UniProt P10828 (P10828 whole entry, looked up): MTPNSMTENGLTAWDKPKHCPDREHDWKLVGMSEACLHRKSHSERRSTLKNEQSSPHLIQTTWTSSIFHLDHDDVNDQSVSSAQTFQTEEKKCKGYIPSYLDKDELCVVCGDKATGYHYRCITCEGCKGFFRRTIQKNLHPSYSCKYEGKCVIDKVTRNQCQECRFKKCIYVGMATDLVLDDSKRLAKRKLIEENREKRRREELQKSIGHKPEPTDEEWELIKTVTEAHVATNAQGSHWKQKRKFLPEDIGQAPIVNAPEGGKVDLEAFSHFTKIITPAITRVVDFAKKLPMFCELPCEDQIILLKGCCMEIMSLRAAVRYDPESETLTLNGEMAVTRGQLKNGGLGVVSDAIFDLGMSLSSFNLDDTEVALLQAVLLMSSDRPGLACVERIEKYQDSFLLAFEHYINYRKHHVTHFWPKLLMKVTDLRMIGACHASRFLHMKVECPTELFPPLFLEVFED
How it was run: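 TR-UAS-bla GripTite HEK293 cells in 2% charcoal/dextran FBS medium were preincubated 4 h at 37 C, given compound (0.59 nM to 92 uM) plus 0.4 nM T3 (final) for 18 h, then CCF4 for 2 h at RT; Hill fit gave IC50.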

[7] = qHTS assay for small molecule agonists of the antioxidant response element (ARE) signaling pathway measured by Nrf2-dependant transcriptional activity - cell viability counter screen (AID 720653; active = well fitted curve in the direction sought with a large enough effect in the repeat runs; inconclusive = weak or mixed curves; inactive = no such curve, though single readings can be large; an effect the other way counts as inactive or inconclusive; also: potency is read from the fitted curve at half-maximal effect); conditions: ARE-bla HepG2 viability, CellTiter-Glo ATP luminescence, 16 h; max response: hits give low values
How it was run: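 ARE-bla HepG2 cells (2,000/well) rested 5 hrs at 37C/5% CO2, then exposed to compounds in DMSO for 16 hrs. Viability was read in the same wells as intracellular ATP by luminescence, 30 min at room temperature after reagent addition.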

[8] = qHTS assay for cell viability of HEK293 cells (AID 743288; active = well fitted curve in the direction sought with a large enough effect; inconclusive = small, poorly fitted or top-dose-only effect, or another doubt; inactive = no such curve, though single readings can be large; an effect the other way counts as inactive or inconclusive; also: potency is read from the fitted curve at half-maximal effect; nearly all actives have a fitted effect of over 50% in size); conditions: ATP luminescence (CellTiter-Glo), 18 h; max response: hits give low values
How it was run: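 Quantitative high-throughput screen: compounds were pinned onto parental HEK293 cells (2,000 per well) after a minimum 5 h settling at 37 C, incubated 18 h at 37 C, and intracellular ATP measured by luciferase luminescence.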

[9] = MultiTox-Fluor Cytotoxicity Assay - LYMP1-002 - Dead Cells (AID 960; active = well fitted curve in the direction sought with a large enough effect; inconclusive = small, poorly fitted or top-dose-only effect, or another doubt; inactive = no such curve, though single readings can be large; an effect the other way counts as inactive or inconclusive;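 also: 0% = DMSO and 100% = tetraoctylammonium bromide; nearly all actives have a fitted effect of over 60% in size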); conditions: LYMP1-002 lymphoblastoid cells, dead-cell protease fluorescence; cytotoxicity (dead cells): at 46.1 µM (top of the series)
How it was run: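 Dead-cell fluorescence (Ex/Em 485/520) after 16 h compound exposure at 37 C of LYMP1-002 lymphoblastoid cells in complete medium; AC50 by Hill equation, with data scaled between DMSO and 15 uM tetraoctylammonium bromide.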

[10] = Cell Viability - LYMP2-002 (AID 977; active = well fitted curve in the direction sought with a large enough effect; inconclusive = small, poorly fitted or top-dose-only effect, or another doubt; inactive = no such curve, though single readings can be large; an effect the other way counts as inactive or inconclusive;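 also: plate controls were DMSO only for no effect and 92 µM tetraoctylammonium bromide for full effect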)
How it was run: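 In this qHTS viability screen, 2500 human lymphoblastoid cells per well receive compound for 24 hr at 37 C, and luciferase-based ATP luminescence gives the viability signal. Tetraoctylammonium bromide serves as positive control.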

[11] = Cell Viability - LYMP1-002 - Assay at 40 hr (AID 994; active = well fitted curve in the direction sought with a large enough effect; inconclusive = small, poorly fitted or top-dose-only effect, or another doubt; inactive = no such curve, though single readings can be large; an effect the other way counts as inactive or inconclusive;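 also: 0% = DMSO only and full inhibition = 92 µM tetraoctylammonium bromide; nearly all actives have a fitted effect of over 60% in size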); conditions: LYMP1-002 lymphoblastoid cell viability; at 92.2 µM (top of the series)
How it was run: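 Cytotoxicity was read as loss of cellular ATP (CellTiter-Glo luminescence) after 40 hr compound exposure at 37 C of 2500 LYMP1-002 lymphoblastoid cells per well. Concentration-response data were fitted with the standard Hill equation to give AC50.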

[12] = target: Retinoic acid receptor RXR-alpha (Homo sapiens) (UniProt P19793); test: qHTS assay for small molecule antagonists of retinoid X receptor alpha signaling (AID 588546; active = well fitted inhibition curve with a large enough effect in the signal ratio, with a control signal flat, not every such curve was filed as active; inconclusive = small, poorly fitted or top-dose-only effect, or effect the other way, or a change in a side signal; inactive = no such curve, though single readings can be large or run the other way; the % refers to the signal ratio;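 also: cells stimulated with 9-cis-retinoic acid as agonist; % is scaled to controls: 0 for no effect and ±100 for the full control effect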); conditions: HEK293T RXRa-UAS-bla, beta-lactamase ratio, antagonist mode
Sequence of UniProt P19793 (P19793 whole entry, looked up): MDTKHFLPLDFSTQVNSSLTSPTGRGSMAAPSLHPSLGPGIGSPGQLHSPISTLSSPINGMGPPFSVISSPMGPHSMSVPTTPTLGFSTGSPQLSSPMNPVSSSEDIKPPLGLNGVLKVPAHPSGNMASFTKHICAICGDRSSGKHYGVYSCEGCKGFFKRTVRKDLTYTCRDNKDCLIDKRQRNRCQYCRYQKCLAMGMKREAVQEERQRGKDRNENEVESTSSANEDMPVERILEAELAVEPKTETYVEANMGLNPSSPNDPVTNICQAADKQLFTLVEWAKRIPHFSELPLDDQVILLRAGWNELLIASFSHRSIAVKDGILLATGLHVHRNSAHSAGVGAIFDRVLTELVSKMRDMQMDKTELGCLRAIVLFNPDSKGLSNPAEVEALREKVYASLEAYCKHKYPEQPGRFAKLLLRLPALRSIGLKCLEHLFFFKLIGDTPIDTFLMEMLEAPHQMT
How it was run: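 Beta-lactamase reporter inhibition, read as CCF4 fluorescence ratio (ex 405, em 460/530 nm) after 2 h at RT. HEK293T UAS-bla cells, 2500/well, were stimulated with 9-cis-RA at 500 or 100 nM final alongside test compound for 18 h at 37 C.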

[13] = qHTS assay for small molecule disruptors of the mitochondrial membrane potential - 5 hr assay (AID 651755); conditions: JC-1-type ratio dye; ratio change, negative = disruption: at 92.2 µM (top of the series); also: % is scaled to controls: 0 for no effect and ±100 for the full control effect; nearly all actives have a fitted effect of over 40% in size
How it was run: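 Seed HepG2 overnight, add compound, incubate 5 hr at 37C and 5% CO2, stain 30 min with Mito-MPS, then measure monomer (490/535 nm) and aggregate (540/590 nm) fluorescence.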

[14] = qHTS assay to identify small molecules that stimulate interleukin-8 (IL-8) secretion (AID 651758; active = well fitted activation curve with a large enough effect in the signal ratio; inconclusive = small, poorly fitted or top-dose-only effect, or effect the other way, or a change in a side signal; the % refers to the signal ratio; also: 0% is about no effect); conditions: HTRF ratio (665/615); activation: at 92.2 µM (top of the series)
How it was run: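 Quantitative HTS in THP-1 monocytic cells at 2000 cells per well, with 16 hrs compound incubation at 37 C. IL-8 in the medium was then quantified by HTRF immunoassay, read after 1-3 hrs at room temperature.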

[15] = Cell Viability - LYMP2-020 (AID 986; active = well fitted curve in the direction sought with a large enough effect; inconclusive = small, poorly fitted or top-dose-only effect, or another doubt; inactive = no such curve, though single readings can be large; an effect the other way counts as inactive or inconclusive;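 also: plate controls were DMSO only for no effect and tetraoctylammonium bromide at 92 µM for full effect; nearly all actives have a fitted effect of over 55% in size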); conditions: activity change, negative = viability loss: at 92.2 µM (top of the series)
How it was run: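 Cytotoxicity in qHTS format: luminescent ATP readout from CellTiter-Glo after 24 h compound exposure at 37 C in complete medium. LYMP2-020 lymphoblastoid cells were seeded at 2500/well; concentration-response data fitted to the Hill equation for AC50.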

[16] = target: Glucocorticoid receptor (Homo sapiens) (UniProt P04150); test: qHTS assay for small molecule antagonists of glucocorticoid receptor signaling (AID 588533; active = well fitted inhibition curve with a large enough effect in the signal ratio, with a control signal flat, not every such curve was filed as active; inconclusive = small, poorly fitted or top-dose-only effect, or effect the other way, or a change in a side signal; the % refers to the signal ratio;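 also: cells stimulated with 2 nM dexamethasone as agonist; % is scaled to controls: 0 for no effect and ±100 for the full control effect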); conditions: HeLa MMTV-bla, GRE beta-lactamase ratio, antagonist mode, 18 h; activity change, negative = inhibition: at 76.8 µM (top of the series)
[17] = target: Peroxisome proliferator-activated receptor delta (Homo sapiens) (UniProt Q03181); test: qHTS assay for small molecule antagonists of peroxisome proliferator-activated receptor delta signaling (AID 588535; active = well fitted inhibition curve with a large enough effect in the signal ratio, with a control signal flat, not every such curve was filed as active; inconclusive = small, poorly fitted or top-dose-only effect, or effect the other way, or a change in a side signal; inactive = no such curve, though single readings can be large or run the other way; the % refers to the signal ratio); conditions: HEK293T PPARd-UAS-bla, beta-lactamase FRET ratio, 18 h; activity change, negative = inhibition: at 76.7 µM (top of the series) unless noted
How it was run: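 Inhibition of PPAR-delta response element-driven beta-lactamase expression is measured in HEK293T cells exposed to a compound titration series for 18 hrs at 37 C. Half-maximal inhibition comes from Hill equation fitting.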

[18] = target: Thyroid hormone receptor beta (Homo sapiens) (UniProt P10828); test: qHTS assay for small molecule agonists of thyroid hormone receptor beta signaling (AID 588545); conditions: TR-UAS-bla GripTite HEK 293, beta-lactamase ratio, agonist mode, 18 h; activation: at 76.7 µM, percent of T3 response, DMSO as zero
How it was run: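 Agonist-mode beta-lactamase reporter assay, HEK 293 cells, 2% charcoal/dextran FBS; cells plated 4 hrs, compound 18 hrs at 37 C, CCF4 2 hrs RT. Normalized to 10 nM T3 (100%) and DMSO (0%); Hill fit gives EC50, efficacy.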

[19] = qHTS assay for small molecule activators of the p53 signaling pathway (AID 651743; active = well fitted activation curve with a large enough effect in the signal ratio, not every such curve was filed as active; inconclusive = small, poorly fitted or top-dose-only effect, or a change in a side signal; the % refers to the signal ratio; also: % of control where 0% means no effect); conditions: HCT-116 p53RE-bla, beta-lactamase FRET ratio, 16 h; activation: hits give high values
How it was run: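 Agonist-mode quantitative HTS in HCT-116 cells carrying a p53-response-element beta-lactamase reporter; 16 h compound treatment at 37 C, then FRET substrate loading for 2 h at room temperature and fluorescence read.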

[20] = qHTS assay for small molecule activators of the nuclear factor-kappa B (NF-kB) signaling pathway (AID 651749; active = well fitted activation curve with a large enough effect in the signal ratio; inconclusive = small, poorly fitted or top-dose-only effect, or a change in a side signal; the % refers to the signal ratio; also: % of control where 0% means no effect); conditions: NF-kB-bla ME-180 cells, beta-lactamase FRET ratio, 16 h; activation: hits give high values
How it was run: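 Human ME-180 cervical cells with an NF-kB-bla construct; compounds added via 23 nL pin transfer, DMSO as vehicle; incubation 16 hr. Reporter activity measured by FRET disruption.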

[21] = target: Retinoic acid receptor RXR-alpha (Homo sapiens) (UniProt P19793); test: qHTS assay for small molecule agonists of retinoid X receptor alpha signaling (AID 588544); conditions: HEK293T RXRa-UAS-bla, beta-lactamase reporter, 18 h; activation: at 76.7 µM (top of the series);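 also: 0% = DMSO basal wells and 100% = reference agonist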
Tags tell the direction and shape of the fitted curve or compound fluorescence and quenching.

COc1cc(Cl)c(OC)cc1N
inconclusive: Potency [1] 35.5 µM [side channel, falling, partial curve, poor fit] | Potency [3] 1.09 µM [side channel, falling, partial curve, poor fit]
inactive: Potency [2]

O=[N+]([O-])c1ccc(O)cc1C(F)(F)F
inconclusive: Potency [1] 12.6 µM [inhibitor, full curve] | activation [4] -9.28% | Potency [5] 31.6 µM [inhibitor, partial curve] | activity change % (negative = inhibition) [6] 3.96% | Potency [7] 70.8 µM [cytotoxic, single point] | Potency [8] 50.1 µM [cytotoxic, partial curve, poor fit]
inactive: Potency [2]

CC(C)c1ccccc1
inconclusive: activation [14] 2.76%
inactive: Potency [9] | Potency [10] | viability change, negative = cytotoxic [11] -0.176% | Potency [1] | max response [12] 6.96% | Potency [13]

N#Cc1ccccc1
inactive: Potency [15] | viability change, negative = cytotoxic [11] 1.25% | Potency [1] | Potency [16] | Potency [17] | activation [18] 4.05% | Potency [3] | activation [19] -1.56% | activation [20] 0.786%
inconclusive: activation [14] 19%

C/C=C/C/C=C\CCCCCCCCOC(C)=O
inactive: Potency [1] | Potency [4] | Potency [5] | Potency [21]

CCOc1ccc(NC(=O)OC(C)C)cc1OCC
inactive: Potency [1] | Potency [17] | Potency [5] | Potency [3]

CCCCCCCCOC(=O)c1cc(O)c(O)c(O)c1
inactive: Potency [3]
inconclusive: activity change, negative = inhibition [1] -15.1% | activity change, negative = inhibition [16] -57.4% | activation [21] -25.8% | Potency [8] 20 µM [cytotoxic, partial curve, poor fit]
